Laboratory results from PMC10726135.
The other results are listed elsewhere or left out. At the low end of the ranking the order means little. Measured with an extract: partners may take part in the binding.

What follows are sequences tested against T1, HNF4alpha2 (COS-7 nuclear extract) (UniProt P41235) (assay: protein-binding microarray). Details: COS-7 nuclear extract on double-stranded Agilent 4x180k PBM; binding buffer, salt, pH and temperature not given; high values mean tight binding; double strand, one strand shown; sequences stand for … in …GCCTAGGGAGATTAGAGTATCGGTCGA.
T1 sequence: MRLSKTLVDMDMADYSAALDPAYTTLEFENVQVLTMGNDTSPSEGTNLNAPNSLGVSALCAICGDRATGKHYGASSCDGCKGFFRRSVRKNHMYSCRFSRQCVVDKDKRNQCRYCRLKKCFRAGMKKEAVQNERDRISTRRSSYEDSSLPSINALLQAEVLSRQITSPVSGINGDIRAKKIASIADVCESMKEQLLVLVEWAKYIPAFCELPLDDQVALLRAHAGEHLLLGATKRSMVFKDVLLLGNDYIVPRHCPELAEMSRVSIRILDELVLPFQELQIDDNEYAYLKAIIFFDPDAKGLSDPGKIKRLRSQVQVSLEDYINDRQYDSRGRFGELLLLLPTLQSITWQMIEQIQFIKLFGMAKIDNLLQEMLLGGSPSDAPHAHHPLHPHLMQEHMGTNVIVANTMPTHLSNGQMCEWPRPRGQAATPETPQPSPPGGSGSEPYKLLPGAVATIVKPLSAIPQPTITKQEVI
ACTTTCAGAGTAACCATGGGGGCTCAGGGC was tested, and the binding signal (log2 normalized intensity) was -1.02. With AGAGATCATGGCCGATCGACTAGCGAGGCG the binding signal (log2 normalized intensity) was -1.16. With TCTAGAAACCAGTGAGAAAATGGTGACCCT the binding signal (log2 normalized intensity) was 3.26. With TGCTTTTCTAGAACCAGGAATCCTAGGGAA the binding signal (log2 normalized intensity) was 0.0809. In the case of TGATTACCCTTATCTTATCTCCTGCTAAAT, the binding signal (log2 normalized intensity) is reported as -0.667. Work on TTTACTTCCTTTTGTTCCTGCTCTAACACT yielded a binding signal (log2 normalized intensity) of 1.1. For GCTGATGCAGAGGGTGCAAAGTTTTTAAAG, the binding signal (log2 normalized intensity) was 0.689. For CTAGGAAACTGACCTTTGCTCATGACTATT, the binding signal (log2 normalized intensity) was 5.53. For ACGCCCGGCCAAAGACCACATTCTTTTAGT, the binding signal (log2 normalized intensity) was -1.13. Sequence ATCAGAGAGTTCAAACTCTGAAGTTGTAAA has a binding signal (log2 normalized intensity) of 0.644. Sequence CCCCTTTGAACTCTGAATAACTGCTTTGTG has a binding signal (log2 normalized intensity) of 1.75. Sequence CAGGCTGCGTTTCAAAGCCAGGACTTTCAG has a binding signal (log2 normalized intensity) of -1.18. TACAGAATTTCTCAGATGCCAGCTAAGATC was tested, and the binding signal (log2 normalized intensity) was -1.14. TGGTTCCATTGTCCTACAGGACATTAATCA gave a binding signal (log2 normalized intensity) of 0.503. AGTTCCTGTGCAAGCCCCTGACCAAGGGTC showed a binding signal (log2 normalized intensity) of 3.15. Work on AAAAACCACAAAAGCCAACAGTACAGCCTT yielded a binding signal (log2 normalized intensity) of -1.12. With TGCATAGCAGAAACATAGAAAGGAGTACAC the binding signal (log2 normalized intensity) was -0.58. Sequence TTCCAGTTACTGGAGGCTGGAGCTCCTGGG has a binding signal (log2 normalized intensity) of -1.18. Work on TAAAATTCCCTGTGGAATTTTAAGCTTCAC yielded a binding signal (log2 normalized intensity) of -0.912. With GTTCCCCCGTGTAGACACTCATCCCTTGCA the binding signal (log2 normalized intensity) was 2.42. AGGTGAAGGCTGACCACGGGGGCCGCTCTC was tested, and the binding signal (log2 normalized intensity) was -1.07. Sequence CCCCCTATCCCAAGACATCAATTAACTTGT has a binding signal (log2 normalized intensity) of 3.05. AGCATGGAGATGAGTGGGTTCACTTTGAGC was tested, and the binding signal (log2 normalized intensity) was 1.11. GAGGGAACGCCCGACGCGAAGGCAGTGTGG showed a binding signal (log2 normalized intensity) of -1.22. TACACAACAGCACTTGTGCAGTTTTTCTGC gave a binding signal (log2 normalized intensity) of -1.13. Sequence TAAGATACTGAAATGCCAAAAAAGAAGAAG has a binding signal (log2 normalized intensity) of -1.09. In the case of CATTGTGTGCAGACCTTCTCTGGCCCTCAC, the binding signal (log2 normalized intensity) is reported as 0.878. Sequence CTGGGCCCTGCCTGACCTGCCCTTTGTCCC has a binding signal (log2 normalized intensity) of 6.28. ACCCTGCAATTCCCCTGGGCCCACGGCTCT was tested, and the binding signal (log2 normalized intensity) was -1.22. TGACCTGGAGCATGACCCTTTGCAGGTGGG showed a binding signal (log2 normalized intensity) of 1.92. With ATTAAATCTTGTTGGCTTGACGCTAACTTC the binding signal (log2 normalized intensity) was -0.983. Work on GCTCAGTCCAAGTCCAAAGGTCTGAGAACC yielded a binding signal (log2 normalized intensity) of 3.98. TGGGAGCCTTGCACACTCGCCTGGCTCCCC gave a binding signal (log2 normalized intensity) of -1.12. TAGGCATTCTTAGACACAGTCTGAGATAGA showed a binding signal (log2 normalized intensity) of -1.09. For GGATTTTTTCTTGGACTTTGGTCATCCTTT, the binding signal (log2 normalized intensity) was 6.83. Sequence CCTTCACTATTTTCAAAGGTCAACATACAG has a binding signal (log2 normalized intensity) of 3.12. In the case of ATACCACTGATAAGGTTCCAGCAAAGAGAT, the binding signal (log2 normalized intensity) is reported as -0.71. Work on ATCGCTTCCAGGGTTACCGGCAGAGAGAAG yielded a binding signal (log2 normalized intensity) of -0.689. CTGGTAGCAGGGGTGGTTCATTTGCACTTG gave a binding signal (log2 normalized intensity) of 1.32. CAAACCAAAAAGTTGGTTGGAGCTATGGGC showed a binding signal (log2 normalized intensity) of -1.15. In the case of TACTTAGTGTTTTATGTGTATTTACTTATT, the binding signal (log2 normalized intensity) is reported as 2.32. With CTTAGGGAACAAAGGTCAGTCCCGCAGTGA the binding signal (log2 normalized intensity) was 4.76. In the case of TGGACCTGCTCTGTTTTCTTTCGGTCACCC, the binding signal (log2 normalized intensity) is reported as 2.1. Sequence GTCCAAGTCACTATCACCTCTCCCACCTGA has a binding signal (log2 normalized intensity) of 2.41. Work on CTCCCCCTTTCTCCGCTAAGTGGCTCGACA yielded a binding signal (log2 normalized intensity) of 2.25. With TGATCCTGGTAGCAGGGGTGGTTCATTTGC the binding signal (log2 normalized intensity) was 1.4. Sequence GTTAGACAGTGCCTATGTTGGAATGCCTAA has a binding signal (log2 normalized intensity) of -0.576. Sequence TTACTGTGTAAACTTTGCAGCAGATAATTA has a binding signal (log2 normalized intensity) of -1.05. GTCCAGAGTCCACGTACTTAACTACTACAC was tested, and the binding signal (log2 normalized intensity) was 0.802. Work on TTCCTGGCCTCTCTGCAAATTTGCCTTGTC yielded a binding signal (log2 normalized intensity) of 0.429. For ACTATTTTCCTAAATATGTTCCAAAGTTCA, the binding signal (log2 normalized intensity) was 3.81. In the case of TATTTCACAGGGATAAGCATGGAGATGAGT, the binding signal (log2 normalized intensity) is reported as 0.632. CACACCCCACGTACATTGCACCCTCCAGGA was tested, and the binding signal (log2 normalized intensity) was 2.2. ATCTCACTAACAGTGTTCCTCGTGTGTTCT showed a binding signal (log2 normalized intensity) of 1.8. TCCAAAATCTGCATCCCCAAGCTGTTATTC gave a binding signal (log2 normalized intensity) of 2.06. ATTCCACACTGCAGGCTCTGTCCCCGCCCA showed a binding signal (log2 normalized intensity) of 2.91. For ACCCAGAGCCCCACCGTTGTGTAATCTCTT, the binding signal (log2 normalized intensity) was 1.69. AAGTCCAAAGTTCTTGGCCAGGCATGGAGA gave a binding signal (log2 normalized intensity) of 2.49. In the case of CCCCACCCCACTCCACCTACGCTACGCACC, the binding signal (log2 normalized intensity) is reported as 4.38. TGAAATATGCCCAGAGCTTTGTTCTGTTCC showed a binding signal (log2 normalized intensity) of 0.402. TGTTGCTCTCTTGCCATTCGTGGATGAGCG gave a binding signal (log2 normalized intensity) of -0.0128. In the case of CTTGAGGAGCCCTATCCGCAGCTGCTGACA, the binding signal (log2 normalized intensity) is reported as -1.21. For CTGGGAGGTAAACTGTAAACCTTTGAAATG, the binding signal (log2 normalized intensity) was 0.607. TATCAGCTCTCCGTGGACTTTGCCCCCTAC showed a binding signal (log2 normalized intensity) of 11.1. TATGTGTGTGCTTTAACAAGGTGTGTTTGA gave a binding signal (log2 normalized intensity) of 2.08. CTGGCCTGCTGGGAACTCAGGATCAAACAG gave a binding signal (log2 normalized intensity) of -1.07. Work on CTGCACCCTACGTAAATGCACGGAAGCCTT yielded a binding signal (log2 normalized intensity) of -1.12. TTTGGCTGGTAGAGCAGGTTTCAGAGGCTC gave a binding signal (log2 normalized intensity) of -0.75. Sequence AGAGTTAGCTAAGCTTCACTGACATTCCAG has a binding signal (log2 normalized intensity) of -0.883. In the case of CTTTATCTCTCTCTCTTTCTTCCCCCACTC, the binding signal (log2 normalized intensity) is reported as 4.59. Sequence AGGGCTGAAGGTTAATTCGCTCATCAATGG has a binding signal (log2 normalized intensity) of -0.0658. With GGATCAATGGATCCACTCAGTATGGCAACC the binding signal (log2 normalized intensity) was -1.01. For CTATTTCTGACCTTTGCACCAGAGATAATA, the binding signal (log2 normalized intensity) was 5.8.
